Source: the supplement of paper PMC3724861
Some of the results follow.

These sequences were tested on T1, Caupolican (Caup) homeodomain DNA-binding domain (assay: PBM E-score (8-mer, recovered from the published 9-mer minima) (E-score (dimensionless, -0.5 to 0.5)); Drosophila protein; higher = stronger relative binding preference, active = 0.31 or more).
T1 sequence: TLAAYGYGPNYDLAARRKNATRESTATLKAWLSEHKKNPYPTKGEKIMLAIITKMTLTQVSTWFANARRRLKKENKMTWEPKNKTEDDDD
Summary of the method: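 Caup's homeodomain DNA-binding domain (residues 214-303) was produced by in vitro transcription and translation and applied at 100 nM to custom-designed protein binding microarrays. Each value is an enrichment score giving relative binding preference for a short DNA word; higher means stronger. Published 9-mer scores were the minimum of their two constituent 8-mer scores, and the 8-mer values were recovered from those minima. A cutoff of 0.31 marks candidate binding sequences.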

| Sequence | PBM E-score |
| --- | --- |
| ATACTGCG | inactive: -0.0189 |
| ATCCCATA | inactive: 0.0616 |
| CAAGTTGG | inactive: -0.0472 |
| CCCGACAC | inactive: 0.0286 |
| ATGGGTCA | inactive: 0.0229 |
| ACAAATTA | inactive: 0.177 |
| ATCTCCCC | inactive: -0.153 |
| AGTGCATA | inactive: 0.069 |
| ACTACGCA | inactive: -0.0384 |
| AACGGGCC | inactive: -0.162 |
| CAGAGAGC | inactive: -0.199 |
| GGTTCGAC | inactive: 0.0215 |
| CAACCATC | inactive: 0.0233 |
| CCCTTAGA | inactive: -0.161 |
| CGTTCTCA | inactive: -0.0787 |
| TGACACAA | inactive: 0.259 |
| CCATCCCA | inactive: -0.104 |
| AATGTGTC | inactive: 0.23 |
| CTCACACA | inactive: 0.0138 |
| GAATGTCA | inactive: 0.169 |
| CCAGACCA | inactive: -0.0928 |
| GCTAGAAA | inactive: -0.0799 |
| AGAATTAC | inactive: 0.168 |
| ACGCTAGC | inactive: -0.0771 |
| TAGCCATA | inactive: 0.0977 |

| Sequence | PBM E-score |
| --- | --- |
| ATGGGAGC | inactive: -0.104 |
| CTATGCAC | inactive: 0.00461 |
| TGAGCCAA | inactive: -0.0599 |
| GACACACC | inactive: 0.165 |
| CAACTGGA | inactive: -0.00289 |
| AAGAATTG | inactive: 0.141 |
| GATGCGCC | inactive: -0.127 |
| CCGCGCGC | inactive: -0.229 |
| AACCGTGG | inactive: -0.097 |
| ACCCAGTA | inactive: -0.061 |
| CATTAATA | inactive: 0.133 |
| ACGTCTCG | inactive: 0.0511 |
| GTGGAGTA | inactive: 0.0706 |
| ACGAACGG | inactive: 0.0258 |
| AATAGAGA | inactive: 0.041 |
| CATCCCCA | inactive: -0.108 |
| CAAGCGAG | inactive: 0.0125 |
| GCATAGAA | inactive: -0.0116 |
| AAGCAGCT | inactive: -0.0382 |
| ATGTGCAC | inactive: 0.14 |
| AGAGTCCC | inactive: -0.228 |
| GGTAGACA | inactive: 0.117 |
| ATCTCTTA | inactive: 0.063 |
| CTGCTGCC | inactive: -0.229 |
| ACCGCCAC | inactive: -0.123 |

| Sequence | PBM E-score |
| --- | --- |
| ACTGCAGC | inactive: -0.106 |
| ATCGGCAA | inactive: -0.052 |
| AAGGAATT | inactive: -0.0309 |
| GCCGCCCC | inactive: -0.333 |
| AGGTGAAG | inactive: -0.0405 |
| TGTCGACA | inactive: 0.294 |
| GTACATAA | active: 0.361 |
| GCACCGCA | inactive: -0.175 |
| ACAGATTC | inactive: 0.156 |
| ATTTACAG | inactive: 0.137 |
| AAGTGTCT | inactive: 0.136 |
| AAAGAGTC | inactive: -0.127 |
| CCGCTTAA | inactive: -0.0634 |
| ACCTGGGG | inactive: -0.275 |
| CGACGCCC | inactive: -0.161 |
| CCAGAGGC | inactive: -0.181 |
| CTGCATTA | inactive: -0.0833 |
| TAAGAGTA | inactive: 0.0941 |
| CATGATCA | inactive: 0.221 |
| AGGCTATA | inactive: -0.0327 |
| GGACTGGA | inactive: -0.0503 |
| AGATATTA | inactive: 0.074 |
| CCAGCCAG | inactive: -0.216 |
| TACCTTCA | inactive: 0.011 |
| GCGATCCA | inactive: -0.0156 |

| Sequence | PBM E-score |
| --- | --- |
| AGACGCCA | inactive: -0.132 |
| ACCTCCTG | ≥ 0.0163 |
| AAACTCGG | inactive: -0.0526 |
| ACCCTGGG | inactive: -0.105 |
| GATCAAGA | inactive: 0.00652 |
| CACCGAGG | inactive: -0.124 |
| AACGCGGG | inactive: -0.133 |
| AATGAAAC | inactive: 0.136 |
| CATCAGCC | inactive: -0.0987 |
| CGACTAAC | inactive: 0.147 |
| GAACCCCA | inactive: -0.0928 |
| CGTTTGGC | inactive: -0.135 |
| ATGGCCGC | inactive: -0.253 |
| AGGTTGTG | inactive: 0.133 |
| CACGTAGA | inactive: 0.0343 |
| CCCATTCA | inactive: -0.0195 |
| ACTTGAAA | inactive: 0.0679 |
| ACCGATGA | inactive: 0.0195 |
| ATACAACC | inactive: 0.258 |
| TGAAATCA | inactive: 0.0653 |
| CCGGGTCA | inactive: -0.18 |
| CACATTTA | inactive: 0.18 |
| CAGAAAGA | inactive: 0.02 |
| CCTAGCTA | inactive: -0.0292 |
| CCTACCAG | inactive: -0.0695 |

| Sequence | PBM E-score |
| --- | --- |
| GCATACTA | inactive: 0.0358 |
| AACAAGGA | inactive: 0.302 |
| CCTGGGCG | inactive: -0.185 |
| GGAGCTCC | inactive: -0.322 |
| ATTTATCG | inactive: 0.0483 |
| CGAGTGCC | inactive: -0.144 |
| ACCTGGCC | inactive: -0.17 |
| CATATACG | inactive: 0.215 |
| ACGGAAAC | inactive: 0.0383 |
| ACCGTTAA | ≥ 0.119 |
| GAGTTTGA | inactive: 0.0834 |
| CACGATAA | inactive: 0.183 |
| CATGCCGC | inactive: 0.00111 |
| CAACCTGA | inactive: 0.0692 |
| CGTTCATA | inactive: 0.0398 |
| GATCGCGC | inactive: -0.101 |
| TCCCTAGA | inactive: -0.0924 |
| ACATCTTC | inactive: 0.196 |
| AAGAGGCT | inactive: -0.0755 |
| GGTCGGCA | inactive: -0.214 |
| TCAACGGA | inactive: -0.0126 |
| CAACGATC | inactive: -0.00232 |
| AAAGGCAG | inactive: -0.00303 |
| TAGTGGCA | inactive: -0.069 |
| AGTCGAGA | inactive: -0.0542 |

| Sequence | PBM E-score |
| --- | --- |
| ATCATCGA | inactive: 0.124 |
| ATAGAACG | inactive: 0.0985 |
| TACGCAAA | inactive: 0.0727 |
| ATTGGTCA | inactive: 0.0786 |
| AGGAGCGA | inactive: -0.149 |
| ATCCGGCA | ≥ -0.019 |
| ATGACTAG | inactive: 0.176 |
| AATTAGAC | inactive: 0.132 |
| CTCTTGAA | inactive: 0.0114 |
| CACTGTGA | inactive: -0.0153 |
| AGATATCG | inactive: 0.014 |
| AGGGACCG | inactive: -0.228 |
| CGACGGGA | inactive: -0.138 |
| AGTAGTAA | inactive: 0.168 |
| AGCTGATC | inactive: 0.0339 |
| GCGATTCA | inactive: -0.0425 |
| CTCTCGAC | inactive: -0.175 |
| GCAGGGCA | inactive: -0.149 |
| ACGCTCAG | inactive: -0.0685 |
| AAAACATG | active: 0.419 |
| CAGTTACA | inactive: 0.274 |
| GCCCTCTA | inactive: -0.199 |
| AGCATAAT | inactive: 0.107 |
| CGATGACG | inactive: -0.114 |
| ACTCAGTC | inactive: -0.0261 |

| Sequence | PBM E-score |
| --- | --- |
| GCCAGTCA | inactive: -0.0635 |
| GAATCCCC | inactive: -0.127 |
| CACATCCG | inactive: 0.0767 |
| GCAAGAGC | inactive: 0.00324 |
| AGTGAATC | inactive: 0.0198 |
| CGGTTAAG | inactive: 0.0112 |
| AAGGACCT | inactive: -0.0582 |
| CGGTACAG | inactive: 0.115 |
| CCGATCTC | inactive: -0.101 |
| CAGCGTGG | inactive: -0.0919 |
| CCTTTTGA | inactive: 0.0524 |
| ACGCATCC | inactive: -0.0982 |
| ATTTGGTC | inactive: 0.0301 |
| ACATAACC | inactive: 0.22 |
| GTAGAGAC | inactive: -0.0618 |
| AACCAACT | inactive: 0.143 |
| CACTACCA | inactive: 0.115 |
| AAGTGTGC | inactive: 0.0232 |
| GCTGTTAC | inactive: 0.136 |
| GGTCTAAC | inactive: -0.0778 |
| CTAGCGCC | inactive: -0.209 |
| GCCTGGTA | inactive: 0.0903 |
| ACCACACG | inactive: 0.0673 |
| CATGGAGG | inactive: 0.0552 |
| CAAGCACC | inactive: -0.0192 |

| Sequence | PBM E-score |
| --- | --- |
| GACTCGAC | inactive: 0.0291 |
| CTTACCTA | inactive: 0.0194 |
| CTCCAAAA | inactive: -0.105 |
| CGGCTATA | inactive: -0.0256 |
| AACCCCTT | inactive: -0.0989 |
| AGTGCGCC | inactive: -0.17 |
| CTTTCAGC | inactive: -0.14 |
| GCCGAGAA | inactive: -0.127 |
| AGTTTCTA | inactive: 0.0215 |
| AAATTACA | active: 0.329 |
| CGCACTTC | inactive: -0.178 |
| CTTATATA | inactive: 0.101 |
| GCGGCTTA | inactive: -0.157 |
| GTCAAATA | inactive: 0.216 |
| CCTCGTTA | inactive: 0.0822 |
| CTATTTGC | inactive: 0.0523 |
| GAGTAGGA | inactive: -0.0546 |
| AAGATATC | inactive: 0.116 |
| CAACTAGA | inactive: 0.0825 |
| ATTACTCC | inactive: 0.0663 |
| AAGATTGT | inactive: 0.125 |
| AAGATTTG | inactive: 0.112 |
| CAACGTCC | inactive: -0.0773 |
| GATGATGA | inactive: 0.00564 |
| GTAGCCAC | inactive: -0.137 |

| Sequence | PBM E-score |
| --- | --- |
| AATTGGCG | inactive: -0.0318 |
| CCGTGACG | inactive: -0.0431 |
| AACTGCGC | ≥ -0.0217 |
| AGGGGAAA | inactive: -0.0794 |
| CATGTACA | active: 0.469 |
| CCGTTTAC | inactive: 0.0674 |
| CTTCAGAC | inactive: 0.0267 |
| CTATGTTA | inactive: 0.294 |
| GATTAGAA | inactive: 0.0661 |
| GGGCAAGA | inactive: -0.0635 |
| ACTCAGCG | inactive: -0.157 |
| CTCGCATC | inactive: -0.113 |
| AATGGTCT | inactive: 0.0107 |
| ATGACCTC | inactive: -0.0881 |
| AGCATGAA | inactive: 0.102 |
| ACTATGCG | inactive: 0.0796 |
| GCGTACAA | inactive: 0.256 |
| CACGGCTC | inactive: -0.102 |
| CGCAACCC | inactive: -0.102 |
| CTGTCAGC | inactive: -0.0171 |
| ACTACTGG | inactive: 0.0424 |
| ATCGAGGG | inactive: -0.127 |
